Values joined by “and” are separate entries in the source; they are usually repeats but may differ in a detail not shown here. Equal entries are not always repeated.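 1) Cells in 96-well plates. 2) Compound, 48 h, 5 concentrations. 3) Linear interpolation between surrounding doses. 4) Unreached endpoint = highest concentration. GI50 = concentration required for 50% inhibition of growth. TGI marks complete inhibition of growth.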 Numbered stars: 1 amine (or outer) side, 2 acyl side, 3 side chain; on linkers, the order of the positions; unused ones are H or OH. Bridge positions count the residues as written; N and C are the ends. Square brackets hold non-standard residues; d marks the D form. Peptide text beside a SMILES is read from it. I, II: the chains in the order shown. Actinocin(9to1) = Cc1c2oc3c(C)ccc(C(=O)[*:1])c3nc-2c(C(=O)[*:2])c(N)c1=O; NMeV = CN[CH](C(=O)O)C(C)C; Sar = CNCC(=O)O
Test system: NCI-H322M lung
Assay: NCI-60 cell line screen, 48 h

Compound `COc1cc2c(cc1OC)-c1cc(OC)c(OC)cc1C(CN(C)C)C2` (centres undefined) has a GI50 of over 10 µM and a TGI of over 10 µM.
`S=P1(Oc2ccccc2)NNP2(=NP(N3CC3)(N3CC3)=NP(N3CC3)(N3CC3)=N2)NN1` (centres undefined) was tested, and the TGI was over 100 µM.
In the case of `NCCNCCNCCN`, the GI50 is reported as over 100 µM and the TGI is reported as over 100 µM.
For `CC1(C)[C@@H](Cn2cc(I)c(=O)[nH]c2=O)CC[C@@]1(C)CO`, the TGI was over 100 µM.
Work on `Cc1ccc(S(=O)(=O)N2CCC2c2ccccc2)cc1` (centres undefined) yielded a TGI of over 100 µM.
For `NC(=S)N/N=C\c1nccc2c(C(F)(F)F)cccc12`, the GI50 was 0.227 µM and the TGI was over 73.4 µM.
With `CCOC(=O)/C(=C/c1ccc(OC)cc1)N(CC)CC` the TGI was over 100 µM.
`O=C(/C=C/c1c(O)ccc2ccccc12)c1ccc([N+](=O)[O-])cc1` showed a TGI of over 100 µM.
For `C/C(=N\NC(N)=S)c1ccc2c(c1)Sc1ccccc1O2`, the TGI was over 100 µM.
`CC(=O)CC1CCC(=O)/C=C/C(=O)OC(CC(C)=O)CCC(=O)/C=C/C(=O)O1` (centres undefined) gave a TGI of 37.7 µM.
In the case of `C[N+]12C=CC=C1C(N1CCCC1)c1scc(-c3ccc(Br)cc3)c12` (centres undefined), the TGI is reported as over 100 µM.
`c1ccc(Nc2ncc(-c3ccccc3)o2)cc1` was tested, and the GI50 was over 19.3 µM and the TGI was over 25 µM.
For `O=C(Nc1cccc(C(F)(F)F)c1)Nc1cccc(C(F)(F)F)c1`, the GI50 was 1.97 µM and the TGI was 11.1 µM.
`CCOC(=O)C(=[N+]=[N-])C(=O)CN1C(=O)c2ccccc2C1=O` was tested, and the TGI was over 100 µM.
Compound `COC(=O)[C@]12CC[C@@H](C)[C@H](C)[C@@H]1C1=CC[C@@H]3[C@@]4(C)C[C@@H](O)[C@H](O)[C@@](C)(CO)[C@@H]4[C@H](O)C[C@@]3(C)[C@]1(C)CC2` has a GI50 of 12.7 µM and a TGI of 26.7 µM.
`CCCCCCCCCCCCNC(=S)OC` was tested, and the TGI was 66.1 µM.
`CC(C)=C[C@H]1C[C@H](C)[C@H]2CC[C@H](C)c3c2c1c(C)c1ncoc31` gave a TGI of 39.6 µM.
`CC(C)(C)[Si](C)(C)OC1[C@@H](O[Si](C)(C)C(C)(C)C)[C@@H](CNC(=O)NC(=O)C(F)(F)F)O[C@H]1n1cnc2c(NC(=O)Nc3ccccc3)ncnc21` (some centres undefined) gave a GI50 of 10.7 µM and a TGI of 19.7 µM.
`COc1cc2c(cc1O)[C@H](C)C(c1ccc(OC)c(OC)c1)O2` (some centres undefined) showed a TGI of over 100 µM.
`CC(C)[C@@H]1NC(=O)[C@]2(C)CSC(=N2)c2ccnc(c2)CNC(=O)C[C@@H](/C=C/CCS)OC1=O` showed a GI50 of 0.0984 µM and a TGI of 3.35 µM.
Compound `CCCCCCc1cc2cc(-c3cn4ccsc4n3)c(=O)oc2cc1O` has a TGI of over 100 µM.
`O=C(CC1Sc2ccccc2NC1=O)Nc1ccccc1[N+](=O)[O-]` (centres undefined) was tested, and the TGI was over 100 µM.
For `CC1(C)CC(c2c[nH]c3ccccc23)=CC2=Nc3ccccc3C21O` (centres undefined), the TGI was over 100 µM.
With `COc1cc(/C=C2\CN(S(=O)(=O)c3ccc(C)cc3)C/C(=C\c3cc(CN4CCCC4)c(O)c(OC)c3)C2=O)cc(CN2CCCC2)c1O` the GI50 was 1.56 µM and the TGI was 3.22 µM.
`Clc1ccc2cccc3c2c1C1OC3c2ccccc21` (centres undefined) was tested, and the TGI was over 100 µM.
`CC(=C(c1ccc(OCCN2CCCCC2)cc1)c1ccc(OCCN2CCCCC2)cc1)c1ccc(Cl)cc1` was tested, and the GI50 was 0.405 µM and the TGI was 0.745 µM.
In the case of `Br[Se]c1ccccn1`, the TGI is reported as 32.6 µM.
With `CNC(=O)NCCCC(NC(C)=O)C(=O)NCc1ccccc1` (centres undefined) the TGI was over 100 µM.
With `CCN(CC)CCCNC(=O)c1cc(-c2nccn2C)nc2ccccc12` the TGI was over 100 µM.
In the case of `CCNC(=O)C#Cc1ccc2c(C(=Nc3ccc(CN(C)C)cc3)c3ccccc3)c(O)[nH]c2c1`, the GI50 is reported as 0.293 µM and the TGI is reported as over 7.94 µM.
`Nc1nc2[nH]cc(CCc3ccc(C(=O)N[C@@H](CCC(=O)O)C(=O)O)cc3)c2c(=O)[nH]1` showed a TGI of over 100 µM.
`COc1cc(-c2nc3sccn3c2-c2ccnc(NCCNS(=O)(=O)c3ccc(F)cc3)n2)ccc1F` showed a GI50 of 4.13 µM and a TGI of over 100 µM.
`CC(C)C(NC(=O)Oc1ccccc1)C(=O)NC1c2c(Br)sc(Br)c2C(=O)C1O` (centres undefined) gave a TGI of 21.1 µM.
`COc1cc(C2C(Cl)C(=O)N2n2cnc3ccccc3c2=O)ccc1O` (centres undefined) was tested, and the TGI was over 100 µM.
For `C[C@]12c3c4cc(NC(=O)C(=O)NCc5ccc(-c6ccccn6)nc5)cc3Oc3cc(NC(=O)C(=O)NCc5ccc(-c6ccccn6)nc5)cc(c31)OC1C=C(NC(=O)C(=O)NCc3ccc(-c5ccccn5)nc3)C=C(O4)C12` (some centres undefined), the TGI was 55.4 µM.
For `O=c1[nH]c(-c2ccccc2)nc2cc(Cl)ccc12`, the TGI was over 100 µM.
`COc1cccc(-c2cc(=O)c3cc(N4CCCCC4)ccc3[nH]2)c1` was tested, and the TGI was over 100 µM.
`O=C(O)C(Cl)Cl` was tested, and the GI50 was 5970 µM and > 10000 µM and the TGI was over 10000 µM.
In the case of `O=C1c2ccccc2-n2nnnc2C2CSCN12` (centres undefined), the TGI is reported as over 100 µM.
`O=[N+]([O-])c1cc([N+](=O)[O-])c(C(F)(F)F)cc1NN=C(c1ccc(O)cc1)c1ccc(O)cc1` gave a GI50 of 8.2 µM and a TGI of 31.8 µM.
In the case of `Cc1cc(Nc2ccc(C)c(Cl)c2)n2nc(C(F)(F)F)nc2n1`, the GI50 is reported as 38 µM and the TGI is reported as over 100 µM.
With `C[C@]12[C@@H]3CC[C@H]1[C@@H](O)C(=O)N2CC3` the TGI was over 100 µM.
For `O=S(=O)(O)c1cc(N=Nc2c(O)ccc3ccccc23)cc2c(S(=O)(=O)O)cccc12`, the TGI was over 100 µM.
In the case of `O=C1NC(=NCc2ccccc2)S/C1=C\c1ccc2ncccc2c1`, the GI50 is reported as over 25 µM and the TGI is reported as over 25 µM.
For `COc1ccccc1NC(=O)c1cc2cc(Br)ccc2cc1O`, the GI50 was 2.66 µM and the TGI was 9.84 µM.
`Cc1c2oc3c(C)ccc(C(=O)NC4C(=O)NC(C(C)C)C(=O)N5CCCC5C(=O)N(C)CC(=O)N(C)C(C(C)C)C(=O)OC4C)c3nc-2c(C(=O)NC2C(=O)NC(C(C)C)C(=O)N3CCCC3C(=O)N(C)CC(=O)N(C)C(C(C)C)C(=O)OC2C)c(N)c1=O` (centres undefined) (I: TVP[Sar][NMeV] / II: TVP[Sar][NMeV]; ester I:1-I:C, II:1-II:C; linker I:N-II:N via Actinocin(9to1); configuration not given here) showed a TGI of 0.0499 µM.
`OC(c1cc(C(F)(F)F)nc2c(C(F)(F)F)cccc12)C1CCCCN1` (centres undefined) was tested, and the GI50 was 3.77 µM and the TGI was 14.4 µM.
With `COc1ccc(C2c3cc4c(cc3OC3(OC)COC(=O)C23)OCO4)c(OC)c1` (centres undefined) the TGI was over 100 µM.
In the case of `CCOC(=O)n1cc(C2=C(c3ccc(OC)c(OC)c3)COC2=O)c2ccccc21`, the GI50 is reported as 0.843 µM and the TGI is reported as over 100 µM.
`CCOC(=O)CCC(NC(=O)C(N)Cc1ccc(N(CCCl)CCCl)cc1)C(=O)OCC` (centres undefined) gave a TGI of 23.6 µM.
`COc1ccc2ncnc(Nc3ccc(OCc4ccccc4)cc3)c2c1` gave a GI50 of 5.3 µM and a TGI of over 21 µM.
`CCOC(=O)c1nnn(CCCCO)c1C(=O)OCC` showed a TGI of over 100 µM.
With `COc1ccc(S(=O)(=O)n2c3c(c4ccccc42)[C@@H]2[C@@H](CCCN2C(=O)CS(=O)c2ccc(C)cc2)[C@H](Cl)C3)cc1` (some centres undefined) the TGI was over 100 µM.
Work on `O=C1CSC(=S)N1/N=C/c1ccc(Cl)c([N+](=O)[O-])c1` yielded a TGI of over 100 µM.
In the case of `COc1cc(-c2cccs2)sc1-c1cccs1`, the TGI is reported as over 100 µM.
Compound `O=C1c2c(F)c(F)c(F)c(F)c2C(=O)N1c1ccc(F)cc1F` has a GI50 of 20.8 µM and a TGI of 39.5 µM.
With `Cn1cc(-c2cc3c(N4CCN(c5ncc([C@@](C)(N)c6ccc(F)cc6)cn5)CC4)ncnn3c2)cn1` the GI50 was over 100 µM and the TGI was over 100 µM.
Compound `Nc1nc(Cl)cc(OCC2(CO)CC=CC2)n1` has a TGI of over 100 µM.
`O=C1c2sc(-c3ccc(Cl)cc3)cc2-n2cccc21` showed a TGI of over 100 µM.
With `O=c1[nH]c2cc(Cl)ccc2nc1/C(=N\Nc1ccccc1)C(O)c1ccc(Cl)c(Cl)c1` (centres undefined) the TGI was over 100 µM.
With `O=C(Nc1nc(=S)[nH][nH]1)C(=O)C(C(=O)c1ccc2ccccc2c1)C1OC(=O)c2ccccc21` (centres undefined) the TGI was 77.3 µM.
For `COc1ccc(Cn2c(Br)c3c(c2Br)-c2nc(N)sc2CC3)cc1`, the GI50 was 8.2 µM and the TGI was 35.3 µM.
Work on `Cc1nn(C(=O)Cc2ccccc2)c2c1C(c1ccccc1)SC(N)=N2` (centres undefined) yielded a TGI of over 100 µM.
For `N#CC(C(=O)CCC(=O)Nc1ccc(Cl)c(Cl)c1)c1ccccc1` (centres undefined), the TGI was over 100 µM.
With `O=S1C(=c2ccc(=C3Sc4ccccc4S3)cc2)Sc2ccccc21` (centres undefined) the TGI was 32.1 µM.
With `O=C1c2cc3c(cc2CC12Cc1ccc4c(c1C2=O)CCC4)CCCC3` (centres undefined) the TGI was over 100 µM.

Reference: PubChem BioAssay (NCI)
